Data reported in the supplement of paper PMC11880418.
Counter-ions that a name gives are not always drawn. The list shows a part of the results. The data scatter; read single values as rough.

test system: MKN45; experiment: ALDHbr (CSC) cell proportion score relative to DMSO vehicle (ratio to DMSO); breast (SUM159) / gastric (MKN45) / pancreatic (PANC1) / colon cancer lines; ALDHbr cells have high ALDH activity and are rich in cancer stem cells (CSC); higher = more CSC (ALDHbr) cells remaining; conditions: 10 µM; 72 h
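Further: High-content imaging of ALDEFLUOR-stained cells with Hoechst-labelled nuclei in 384-well plates, triplicate wells, scored as Z-score against 0.1% DMSO vehicle, negative meaning fewer ALDHbr cells.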

Row | SMILES | ALDHbr
1 | O=C1OC(CN2CCOCC2)CN1/N=C/c1ccc([N+](=O)[O-])o1 (stereo unspecified) [Furaltadone hydrochloride] | 0.281
2 | Cc1cccn2c(=O)c(-c3nnn[nH]3)cnc12 [Pemirolast potassium] | 1
3 | CCCCCCNC(=O)n1cc(F)c(=O)[nH]c1=O [Carmofur] | 0.215
4 | CN(C)CCn1nnnc1SCC1=C(C(=O)O)N2C(=O)[C@@H](NC(=O)Cc3csc(N)n3)[C@H]2SC1 [Cefotiam hydrochloride] | 0.994
5 | NC[C@@H]1O[C@H](O[C@H]2[C@@H](O)[C@H](O[C@@H]3[C@@H](O)[C@H](N)C[C@H](N)[C@H]3O[C@H]3O[C@H](CN)[C@@H](O)[C@H](O)[C@H]3N)O[C@@H]2CO)[C@H](N)[C@@H](O)[C@@H]1O [Neomycin sulfate] | 1.09
6 | NS(=O)(=O)c1cc2c(cc1C(F)(F)F)NCNS2(=O)=O [Hydroflumethiazide] | 0.883
7 | N=C(N)c1ccc(OCCCCCOc2ccc(C(=N)N)cc2)cc1 [Pentamidine isethionate] | 0.195
8 | CC(C)Cc1ccc([C@H](C)C(=O)O)cc1 [S-(+)-ibuprofen] | 1.12
9 | CS(=O)(=O)OCCCCOS(C)(=O)=O [Busulfan] | 0.986
10 | CN(C(=O)CN(CCO)CC(=O)N(C)C(C)(C)Cc1ccccc1)C(C)(C)Cc1ccccc1 [Oxethazaine] | 0.772
11 | CC(=O)O[C@H]1C[C@@]2(C)[C@@H](C[C@@H](O)[C@H]3[C@@]4(C)CC[C@@H](O)[C@@H](C)[C@@H]4CC[C@@]32C)/C1=C(\CCC=C(C)C)C(=O)O [Fusidic acid sodium salt] | 0.886
